# Measured values: the supplement of paper PMC8728848
# This is one part of the list.
# B1: Surfactant Protein D (Human); Neck + Carbohydrate Recognition Domain (NCRD) (Homo sapiens) (protein)
# chain: MLLFLLSALVLLTQPLGYLEAEMKTYSHRTMPSACTLVMCSSVESGLPGRDRDGREGPRGEKGDPGLPGAAGQAGMPGQAGPVGPKGDNGSVGEPGPKGDTGPSGPPGPPGVPGPAGREGALGKQGNIGPQGKPGPKGEAGPKGEVGAPGMQGSAGARGLAGPKGERGVPGERGVPGNTGAAGSAGAMGPQGSPGARGPPGLKGDKGIPGDKGAKGESGLPDVASLRQQVEALQGQVQHLQAAFSQYKKVELFPNGQSVGEKIFKTAQFVKPFTEAQLLCTQAGGQLASPRSAAENAALQQLVVAKNEAAFLSMTDSKTEGKFTYPTGESLVYSNWAPGEPNDDGGSEDCVEIFTNGKWNDRACGEARLVVCEF
# Legend:
# Assay in all cases: glycan array binding signal (z-score within array); higher = stronger binding
# Settings in all cases: glycan notation: IUPAC condensed, linker removed; mutation: K348A
# Fuc(a1-2)Gal = target: Fuc(a1-2)Gal
# How it was run: (§1)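 Glycan array data were curated from 3228 arrays in the Consortium for Functional Glycomics database and kept only where the protein sequence was available. Glycan names were converted to IUPAC-condensed notation, and columns mapping to the same glycan were averaged. The binding signal is a within-array Z-score, averaged across arrays of the same protein sequence at different concentrations or buffers and across linkers. Negative Z-scores can be read as non-binding.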
# Fuc(a1-2)Gal(b1-3)GalNAc = target: Fuc(a1-2)Gal(b1-3)GalNAc
# How it was run: as §1
# [1] = target: Fuc(a1-2)Gal(b1-3)GalNAc(b1-3)Gal
# How it was run: as §1
# [2] = target: Fuc(a1-2)Gal(b1-3)GalNAc(b1-3)Gal(a1-4)Gal(b1-4)Glc
# How it was run: as §1
# [3] = target: Fuc(a1-2)Gal(b1-3)GalNAc(b1-4)[Neu5Ac(a2-3)]Gal(b1-4)Glc
# How it was run: as §1
# Fuc(a1-2)Gal(b1-3)GlcNAc = target: Fuc(a1-2)Gal(b1-3)GlcNAc
# How it was run: as §1
# [4] = target: Fuc(a1-2)Gal(b1-3)GlcNAc(b1-3)Gal(b1-4)Glc
# How it was run: as §1
# [5] = target: Fuc(a1-2)Gal(b1-3)[Fuc(a1-4)]GlcNAc
# How it was run: as §1
# Fuc(a1-2)Gal(b1-4)Glc = target: Fuc(a1-2)Gal(b1-4)Glc
# How it was run: as §1
# Fuc(a1-2)Gal(b1-4)Glc6S = target: Fuc(a1-2)Gal(b1-4)Glc6S
# How it was run: as §1
# Fuc(a1-2)Gal(b1-4)GlcNAc = target: Fuc(a1-2)Gal(b1-4)GlcNAc
# How it was run: as §1
# [6] = target: Fuc(a1-2)Gal(b1-4)GlcNAc(b1-3)Gal(b1-4)GlcNAc
# How it was run: as §1
# [7] = target: Fuc(a1-2)Gal(b1-4)GlcNAc(b1-3)Gal(b1-4)GlcNAc(b1-3)Gal(b1-4)GlcNAc
# How it was run: as §1
# [8] = target: Fuc(a1-2)Gal(b1-4)GlcNAc6S
# How it was run: as §1
# [9] = target: Fuc(a1-2)Gal(b1-4)[Fuc(a1-3)]GlcNAc
# How it was run: as §1
# [10] = target: Fuc(a1-2)Gal(b1-4)[Fuc(a1-3)]GlcNAc(b1-3)Gal(b1-4)[Fuc(a1-3)]GlcNAc
# How it was run: as §1
# [11] = target: Fuc(a1-2)Gal(b1-4)[Fuc(a1-3)]GlcNAc(b1-3)Gal(b1-4)[Fuc(a1-3)]GlcNAc(b1-3)Gal(b1-4)[Fuc(a1-3)]GlcNAc
# How it was run: as §1
# Fuc(a1-2)Gal6S(b1-4)Glc = target: Fuc(a1-2)Gal6S(b1-4)Glc
# How it was run: as §1
# [12] = target: Fuc(a1-2)Gal6S(b1-4)Glc6S
# How it was run: as §1
# [13] = target: Fuc(a1-2)Gal6S(b1-4)GlcNAc
# How it was run: as §1
# Fuc(a1-2)[Gal(a1-3)]Gal = target: Fuc(a1-2)[Gal(a1-3)]Gal
# How it was run: as §1
# [14] = target: Fuc(a1-2)[Gal(a1-3)]Gal(b1-3)GlcNAc
# How it was run: as §1
# [15] = target: Fuc(a1-2)[Gal(a1-3)]Gal(b1-4)Glc
# How it was run: as §1
# [16] = target: Fuc(a1-2)[Gal(a1-3)]Gal(b1-4)GlcNAc
# How it was run: as §1
# [17] = target: Fuc(a1-2)[Gal(a1-3)]Gal(b1-4)[Fuc(a1-3)]GlcNAc
# How it was run: as §1
# [18] = target: Fuc(a1-2)[Gal(a1-4)]Gal(b1-4)GlcNAc
# How it was run: as §1
# [19] = target: Fuc(a1-2)[GalNAc(a1-3)]Gal
# How it was run: as §1
# [20] = target: Fuc(a1-2)[GalNAc(a1-3)]Gal(b1-3)GlcNAc
# How it was run: as §1
# [21] = target: Fuc(a1-2)[GalNAc(a1-3)]Gal(b1-4)Glc
# How it was run: as §1
# [22] = target: Fuc(a1-2)[GalNAc(a1-3)]Gal(b1-4)GlcNAc
# How it was run: as §1
# [23] = target: Fuc(a1-2)[GalNAc(a1-3)]Gal(b1-4)[Fuc(a1-3)]GlcNAc
# How it was run: as §1
# [24] = target: Fuc(a1-2)[GalNAc(a1-4)]Gal(b1-4)GlcNAc
# How it was run: as §1
# [25] = target: Fuc(a1-2)[GalNAc(b1-3)]Gal
# How it was run: as §1
# Fuc(a1-3)GlcNAc = target: Fuc(a1-3)GlcNAc
# How it was run: as §1
# [26] = target: Fuc(a1-3)[Gal(b1-4)]Glc6S
# How it was run: as §1
# [27] = target: Fuc(a1-3)[Gal(b1-4)]GlcNAc
# How it was run: as §1
# [28] = target: Fuc(a1-3)[Gal(b1-4)]GlcNAc(b1-2)Man(a1-3)[Fuc(a1-3)[Gal(b1-4)]GlcNAc(b1-2)Man(a1-6)]Man(b1-4)GlcNAc(b1-4)GlcNAc
# How it was run: as §1
# [29] = target: Fuc(a1-3)[Gal(b1-4)]GlcNAc(b1-2)Man(a1-6)[Gal(b1-4)GlcNAc(b1-2)Man(a1-3)]Man(b1-4)GlcNAc(b1-4)GlcNAc
# How it was run: as §1
# [30] = target: Fuc(a1-3)[Gal(b1-4)]GlcNAc(b1-3)Gal(b1-3)[Fuc(a1-4)]GlcNAc
# How it was run: as §1
# [31] = target: Fuc(a1-3)[Gal(b1-4)]GlcNAc(b1-4)Gal(b1-4)[Fuc(a1-3)]GlcNAc
# How it was run: as §1
# [32] = target: Fuc(a1-3)[Gal(b1-4)]GlcNAc(b1-4)Gal(b1-4)[Fuc(a1-3)]GlcNAc(b1-4)Gal(b1-4)[Fuc(a1-3)]GlcNAc
# How it was run: as §1
# [33] = target: Fuc(a1-3)[Gal(b1-4)]GlcNAc6S
# How it was run: as §1
# [34] = target: Fuc(a1-3)[Gal3S(b1-4)]Glc6S
# How it was run: as §1
# [35] = target: Fuc(a1-3)[Gal3S(b1-4)]GlcNAc
# How it was run: as §1
# [36] = target: Fuc(a1-3)[Gal3S(b1-4)]GlcNAc6S
# How it was run: as §1
# [37] = target: Fuc(a1-3)[GalNAc(b1-4)]GlcNAc
# How it was run: as §1
# Fuc(a1-4)GlcNAc = target: Fuc(a1-4)GlcNAc
# How it was run: as §1
# Fuc(b1-3)GlcNAc = target: Fuc(b1-3)GlcNAc
# How it was run: as §1
# Gal(a1-2)Gal = target: Gal(a1-2)Gal
# How it was run: as §1
# Gal(a1-3)Gal = target: Gal(a1-3)Gal
# How it was run: as §1
# Gal(a1-3)Gal(b1-3)GlcNAc = target: Gal(a1-3)Gal(b1-3)GlcNAc
# How it was run: as §1
# Gal(a1-3)Gal(b1-4)Glc = target: Gal(a1-3)Gal(b1-4)Glc
# How it was run: as §1
# Gal(a1-3)Gal(b1-4)GlcNAc = target: Gal(a1-3)Gal(b1-4)GlcNAc
# How it was run: as §1
# [38] = target: Gal(a1-3)Gal(b1-4)[Fuc(a1-3)]GlcNAc
# How it was run: as §1
# Gal(a1-3)GalNAc = target: Gal(a1-3)GalNAc
# How it was run: as §1
# [39] = target: Gal(a1-3)[Gal(a1-4)]Gal(b1-4)GlcNAc
# How it was run: as §1
# Gal(a1-4)Gal(b1-4)Glc = target: Gal(a1-4)Gal(b1-4)Glc
# How it was run: as §1
# Gal(a1-4)Gal(b1-4)GlcNAc = target: Gal(a1-4)Gal(b1-4)GlcNAc
# How it was run: as §1
# Gal(a1-4)GlcNAc = target: Gal(a1-4)GlcNAc
# How it was run: as §1
# Gal(a1-6)Glc = target: Gal(a1-6)Glc
# How it was run: as §1
binder,measurement,setting,value
B1,glycan array binding signal (z-score),Fuc(a1-2)Gal,-0.169
same,glycan array binding signal (z-score),Fuc(a1-2)Gal(b1-3)GalNAc,-0.169
same,glycan array binding signal (z-score),[1],-0.172
same,glycan array binding signal (z-score),[2],-0.168
same,glycan array binding signal (z-score),[3],-0.148
same,glycan array binding signal (z-score),Fuc(a1-2)Gal(b1-3)GlcNAc,-0.171
same,glycan array binding signal (z-score),[4],-0.166
same,glycan array binding signal (z-score),[5],-0.177
same,glycan array binding signal (z-score),Fuc(a1-2)Gal(b1-4)Glc,-0.169
same,glycan array binding signal (z-score),Fuc(a1-2)Gal(b1-4)Glc6S,-0.162
same,glycan array binding signal (z-score),Fuc(a1-2)Gal(b1-4)GlcNAc,-0.173
same,glycan array binding signal (z-score),[6],-0.178
same,glycan array binding signal (z-score),[7],-0.104
same,glycan array binding signal (z-score),[8],-0.167
same,glycan array binding signal (z-score),[9],-0.176
same,glycan array binding signal (z-score),[10],-0.156
same,glycan array binding signal (z-score),[11],-0.151
same,glycan array binding signal (z-score),Fuc(a1-2)Gal6S(b1-4)Glc,-0.168
same,glycan array binding signal (z-score),[12],-0.177
same,glycan array binding signal (z-score),[13],-0.176
same,glycan array binding signal (z-score),Fuc(a1-2)[Gal(a1-3)]Gal,-0.171
same,glycan array binding signal (z-score),[14],-0.132
same,glycan array binding signal (z-score),[15],-0.18
same,glycan array binding signal (z-score),[16],-0.105
same,glycan array binding signal (z-score),[17],-0.148
same,glycan array binding signal (z-score),[18],-0.176
same,glycan array binding signal (z-score),[19],-0.164
same,glycan array binding signal (z-score),[20],-0.179
same,glycan array binding signal (z-score),[21],-0.164
same,glycan array binding signal (z-score),[22],-0.17
same,glycan array binding signal (z-score),[23],-0.136
same,glycan array binding signal (z-score),[24],-0.151
same,glycan array binding signal (z-score),[25],-0.167
same,glycan array binding signal (z-score),Fuc(a1-3)GlcNAc,-0.116
same,glycan array binding signal (z-score),[26],-0.017
same,glycan array binding signal (z-score),[27],-0.143
same,glycan array binding signal (z-score),[28],-0.176
same,glycan array binding signal (z-score),[29],-0.164
same,glycan array binding signal (z-score),[30],-0.173
same,glycan array binding signal (z-score),[31],-0.134
same,glycan array binding signal (z-score),[32],-0.176
same,glycan array binding signal (z-score),[33],-0.17
same,glycan array binding signal (z-score),[34],-0.112
same,glycan array binding signal (z-score),[35],-0.166
same,glycan array binding signal (z-score),[36],-0.148
same,glycan array binding signal (z-score),[37],-0.144
same,glycan array binding signal (z-score),Fuc(a1-4)GlcNAc,-0.169
same,glycan array binding signal (z-score),Fuc(b1-3)GlcNAc,-0.172
same,glycan array binding signal (z-score),Gal(a1-2)Gal,-0.177
same,glycan array binding signal (z-score),Gal(a1-3)Gal,-0.111
same,glycan array binding signal (z-score),Gal(a1-3)Gal(b1-3)GlcNAc,-0.173
same,glycan array binding signal (z-score),Gal(a1-3)Gal(b1-4)Glc,-0.173
same,glycan array binding signal (z-score),Gal(a1-3)Gal(b1-4)GlcNAc,-0.177
same,glycan array binding signal (z-score),[38],-0.16
same,glycan array binding signal (z-score),Gal(a1-3)GalNAc,-0.169
same,glycan array binding signal (z-score),[39],-0.174
same,glycan array binding signal (z-score),Gal(a1-4)Gal(b1-4)Glc,-0.162
same,glycan array binding signal (z-score),Gal(a1-4)Gal(b1-4)GlcNAc,-0.173
same,glycan array binding signal (z-score),Gal(a1-4)GlcNAc,-0.116
same,glycan array binding signal (z-score),Gal(a1-6)Glc,-0.165
